Read counts are not given, so values of variants with three or more changes are uncertain.

These results are taken from the RNAGym collection of RNA variant scans (doi:10.7554/elife.90254).

First the molecules themselves.
B1: LINE1-mini (parent)
chain: GGCAGAGCUCAACACAGCGUGGCAAAGUGGCUGUGGCUAGACUGCC

Variants of B1 are the subject of this data set. Description: self-cleavage, relative activity (ratio to wild type); higher = more cleavage; in vitro, sequencing; the parent is a self-cleaving ribozyme.
For G21U U28A U38C, the self-cleavage worked out at 0.2.

As for G21U C23U A24U, the self-cleavage was 1.11.

For the variant G21U C23G U34C, the self-cleavage stood at 0.1.

As to G21C G29U C42G, the self-cleavage is 0.01.

Take G21U U38C U43C: the self-cleavage worked out at 0.04.

On to G21U U38C U43A, for which the self-cleavage stood at 0.07.

With G21U U38C U43G, the self-cleavage came out at 0.

Take G22A A24C A26G U34G: the self-cleavage is 0.3.

G22A G30C U43A: the self-cleavage worked out at 0.02.

Take G22C A24C U38A: the self-cleavage worked out at 0.25.

As to G21U U32C C37U, the self-cleavage was found to be 0.04.

Take G21C G29U A39C G44U: the self-cleavage was 0.04.

As for G22C A25U A26U, the self-cleavage stood at 0.73.

In the case of G22A G27U U34A C37A, the self-cleavage was determined as 0.05.

For G22A A24C A25C, the self-cleavage stood at 0.97.

Consider G21A U34C G35U G40U, for which the self-cleavage is 0.02.

In the case of G22A U28C C31G G33C A39G C42A, the self-cleavage worked out at 0.08.

Consider G21C U32C C46U, for which the self-cleavage worked out at 0.73.

As for G21U C45U C46U, the self-cleavage came out at 2.46.

For the variant G21U U28C C37A, the self-cleavage came to 0.01.

As to G22C A26C G44U, the self-cleavage turned out to be 0.42.

G21U A25U A41U: the self-cleavage came to 1.65.

On to G21C G33C C45G, for which the self-cleavage worked out at 0.06.

As to G21C G29A C37U, the self-cleavage was 0.02.

For G21C C31A C42U, the self-cleavage is 0.06.

Turning to G21U G22C C23U G33U U38A C42A, the self-cleavage turned out to be 0.

For G21U G33A G35U G36A, the self-cleavage came to 0.25.

In the case of G21U U38A G44U, the self-cleavage came to 0.12.

Consider G21C G36A G40A, for which the self-cleavage came out at 0.44.

As for G22A U28G U43C, the self-cleavage turned out to be 0.01.

For the variant G21C G29U G35C G40U, the self-cleavage was determined as 0.03.

Consider G21U U28A C37U, for which the self-cleavage came to 0.02.

With G22A C42A C46G, the self-cleavage was 0.29.

With G21A U28G U34A U38G C45G, the self-cleavage came to 0.04.

Take G21C A25C U38C: the self-cleavage worked out at 0.35.

G21A U28C G35U G40C: the self-cleavage stood at 0.02.

Take G22A A24G C46U: the self-cleavage was 0.41.

G21U G22U C23A G29U U38C C45U C46A: the self-cleavage was 0.05.

For G22A A24C U32G G40A A41U, the self-cleavage was 0.12.

Take G21U A39C C46G: the self-cleavage is 0.06.

As to G22A U43C C45U, the self-cleavage was determined as 0.31.

Regarding G21A U32G A41U C42A, the self-cleavage amounted to 0.04.

For G21C G29C G33C, the self-cleavage is 0.42.

Consider G22A U34C C42U, for which the self-cleavage is 0.05.

As for G22A G33U U38G A39G, the self-cleavage was found to be 0.03.

For the variant G21U U34C U43A, the self-cleavage is 0.02.

In the case of G21U G27A U28A C31A, the self-cleavage is 0.66.

For G21U A25G U32C, the self-cleavage came to 0.05.

In the case of G22A G27A C31A, the self-cleavage turned out to be 0.56.

With G21U C23U G36U C37G, the self-cleavage was 0.02.

As to G21C A26U G29U G30U, the self-cleavage was 2.1.

Consider G21C C23G C37U, for which the self-cleavage amounted to 0.04.

With G21U G27A C37U, the self-cleavage is 0.04.

On to G22A A25G G27A, for which the self-cleavage was 1.06.

Turning to G21U G27C U32G C45A, the self-cleavage came out at 0.16.

Consider G21U C31U A39G G44U, for which the self-cleavage was 0.03.

For the variant G21C G27A G40U, the self-cleavage amounted to 0.38.

Regarding G21C C23A G30U G35C, the self-cleavage worked out at 0.03.

Turning to G21U A26U A39C, the self-cleavage was found to be 0.73.

G21C C23U C37A U38G: the self-cleavage was determined as 0.02.

With G21C G22U C37U, the self-cleavage came out at 0.02.

As for G21U G30U C37G, the self-cleavage amounted to 0.03.

In the case of G22A U38A A41C, the self-cleavage stood at 0.

Turning to G21U G36C C42A, the self-cleavage was 0.07.

Consider G22A A24C U32G G40C, for which the self-cleavage came to 0.02.

In the case of G21U U34A U43A, the self-cleavage was determined as 0.04.

As for G21U A24C A26C G30A, the self-cleavage came to 0.44.

In the case of G21A G29U G30C C31G G35U, the self-cleavage came out at 0.02.

For the variant G21A U28C G36U, the self-cleavage stood at 0.04.

On to G21C C31U C45U, for which the self-cleavage turned out to be 0.06.

G21C C37U G40U C45U C46U: the self-cleavage was 0.02.

Regarding G21U A24U C45U, the self-cleavage came to 0.35.

On to G22A A26U C31A U43C, for which the self-cleavage was determined as 0.04.

In the case of G22A G27A G35C C45U, the self-cleavage is 0.11.

As for G21U G29A U32C G35U, the self-cleavage amounted to 0.08.

Regarding G21C A24U G40U C45A, the self-cleavage came to 0.04.

G21U U34A A39C G40U: the self-cleavage is 0.03.

With G21C A25C G27C G35A U43C, the self-cleavage stood at 0.03.

Turning to G21U C23U G40A, the self-cleavage came to 0.5.

Consider G21U G22A C23U U38A G40C, for which the self-cleavage was found to be 0.09.

Regarding G22C A24G G27A U34A, the self-cleavage came out at 0.11.

Turning to G21U U28C G40A, the self-cleavage was determined as 0.1.

With G21U A25U U34G, the self-cleavage was determined as 0.13.

In the case of G21C A26G U34G, the self-cleavage was 0.13.

For the variant G22A A25G U43A, the self-cleavage was found to be 0.1.

With G22A A25G G33C U34A, the self-cleavage was found to be 0.01.

As for G21C A26G G44U C46G, the self-cleavage was determined as 0.1.

For G21C A24U U38C, the self-cleavage came out at 1.47.

Take G21C A41U C42U: the self-cleavage came out at 0.14.

In the case of G22A U28C C46G, the self-cleavage was determined as 0.53.

With G21U G36A A41U C42G U43G, the self-cleavage came out at 0.26.

G21C A24C U32G U43A: the self-cleavage was 0.02.

Consider G22C A26G G35C, for which the self-cleavage was 0.05.

For the variant G21C U28C G35U A41C, the self-cleavage is 0.04.

In the case of G21U A41U C46A, the self-cleavage came out at 2.15.

As to G22A A25C G27U G36U U43A G44U, the self-cleavage was determined as 0.04.

Take G21U U32A U43A G44A: the self-cleavage was determined as 0.04.

Consider G22A C37A A39G G40A, for which the self-cleavage amounted to 0.02.

Consider G22C A25C G27C, for which the self-cleavage came out at 0.94.

In the case of G22A C23U A39C, the self-cleavage stood at 0.04.

On to G21U G22C C23A A26C C46A, for which the self-cleavage is 0.66.

Take G21U A39G C46G: the self-cleavage came to 0.05.

G21C U28C G35U: the self-cleavage was determined as 0.02.

For the variant G21C U43G C46A, the self-cleavage worked out at 0.01.

Consider G22A G29U G36A, for which the self-cleavage was determined as 0.13.

For G22A A24G G44A, the self-cleavage worked out at 0.2.

For the variant G21C G35U G40U, the self-cleavage was found to be 0.09.

With G22A A25C G30U, the self-cleavage came out at 0.63.

On to G22C C23U U38C C42A, for which the self-cleavage was 0.02.

With G22C C31U C37U, the self-cleavage came out at 0.12.

Take G21U A39U C46U: the self-cleavage was 0.88.

As to G22A U38C G44A, the self-cleavage was 0.56.

Take G21U C37U C46U: the self-cleavage is 0.01.

As for G22A U28G G40U C46A, the self-cleavage was 0.23.

In the case of G22C C23G G35U, the self-cleavage was 0.02.

As for G21C A25C C31A U32A, the self-cleavage was 0.53.

In the case of G21U A26U G44C, the self-cleavage came to 0.25.

Consider G22A C23G G35U A41C, for which the self-cleavage amounted to 0.

Regarding G21U G40C C42U, the self-cleavage is 0.02.

Consider G21C G27C G33A, for which the self-cleavage stood at 0.09.

Consider G21U C23U U32A, for which the self-cleavage amounted to 0.19.

Consider G22A G29U C46G, for which the self-cleavage came to 1.03.

Regarding G21U C31G C42U, the self-cleavage came to 0.02.

Regarding G21C A25U A26C U38C, the self-cleavage was 0.56.

Take G22A G27C G40U: the self-cleavage was 0.38.

On to G22A U32G C37A, for which the self-cleavage amounted to 0.04.

As for G22A G29U G33A, the self-cleavage turned out to be 0.75.

On to G21U G22U C45G, for which the self-cleavage is 0.75.

In the case of G21C A24G U34C C45A, the self-cleavage was 0.07.

Turning to G21C C23G G30C, the self-cleavage came to 2.05.

Turning to G21C G27C C37U C42G, the self-cleavage is 0.03.

With G22A C31U C45A, the self-cleavage was 0.14.

In the case of G21U A41U C42G G44A, the self-cleavage was 0.12.

As to G21C C37A A41U, the self-cleavage was 0.08.

For G22A G29C C45U C46U, the self-cleavage is 1.19.

As to G21U A24U G30A, the self-cleavage is 1.55.

On to G21C G30A G35A C46U, for which the self-cleavage was found to be 0.22.

As to G21U G36A C45G, the self-cleavage worked out at 0.05.

With G22A A25C C37U U43A, the self-cleavage stood at 0.15.

As to G21C U28A C37A, the self-cleavage is 0.03.

Consider G21U G22C C31G, for which the self-cleavage came out at 0.11.

Turning to G21U G27U C31G, the self-cleavage is 0.15.

On to G21U G27C G40C, for which the self-cleavage was 0.2.

Take G21A G30U U34A C42U: the self-cleavage was 0.03.

Turning to G21U U32A C46G, the self-cleavage was found to be 0.37.

Regarding G22A U34G A41C, the self-cleavage was found to be 0.03.

As to G21U C23A U43A, the self-cleavage turned out to be 0.18.

G21U A24C C31G: the self-cleavage is 0.06.

Regarding G21A U28A G30A C31A U32C A39U C45U, the self-cleavage stood at 0.07.

Turning to G21A G29C A39C, the self-cleavage was 0.02.

Consider G21U A26G G29C C46A, for which the self-cleavage was 0.58.

G21U G36U G44A: the self-cleavage was 0.03.

With G21U G36U G44U, the self-cleavage stood at 0.41.

As for G21C C23A C46A, the self-cleavage came out at 0.08.

On to G21C G22C C23G, for which the self-cleavage stood at 0.23.

On to G21U A24U C31G, for which the self-cleavage came out at 0.26.

Regarding G22A G27C G35U, the self-cleavage is 0.09.

In the case of G21C G30A A41G, the self-cleavage is 0.21.

For the variant G21C G33U G40U, the self-cleavage stood at 0.13.

G22A G27U U28C C42U: the self-cleavage was found to be 0.02.

For G21C A24G A25U G29A C37A C42G, the self-cleavage came to 0.07.

With G22A G27U G36C, the self-cleavage amounted to 0.03.

In the case of G21U G22U C23A G29C, the self-cleavage stood at 0.74.

For G22A U28G G30C, the self-cleavage is 0.11.

On to G22A G35U G44A, for which the self-cleavage worked out at 0.9.

G22A A41C G44A: the self-cleavage worked out at 0.09.

As to G22A A25C U32A U34A G40C U43A, the self-cleavage came out at 0.01.
